Sequences with one replicate were seen in a single cluster, so their values are uncertain.
System: ATP
Assay: switch fluorescence ratio, 500 uM ATP over buffer (Cy3 cluster intensity, sum of 5 cycles each) (fold (ratio)); higher = stronger signal-on switching upon ATP binding; sequences stand for … in TCGTCGGCAGCGTCAGATGTGTATAAGAGACAGTTTTTTTTTTTTTTTTTTTTTTTTT…TC
Conditions: aptamer strand: ATP DNA aptamer (quencher-CACCTGGGGGAGTATTGCGGAGGAAGG + anchor), 100 nM annealed; ATP concentration: 500 uM; one replicate
Summary of the method: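 Imaging in selection buffer was followed by imaging after 15 min with 500 uM ATP at 22 °C, for Cy3-labelled switching-strand clusters annealed to 100 nM quencher-labelled ATP aptamer on a modified Illumina MiSeq flow-cell. Five of these buffer/ATP cycles ran, separated by NaOH stripping and re-annealing. The fluorescence ratio per cluster is summed target-cycle over summed buffer-cycle Cy3 intensity, averaged per switch-domain sequence; clusters outside 100-1000 RFU were removed.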
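Note: ATP exposure 15 min at 22 °C before imaging.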

Sequence	switch fluorescence ratio
CGCACGCCGC	1.23
GGGGAAGCAT	0.998
CGTACCTGAG	1.18
GTCTGGTTAC	1.04
GACTACAGCT	1.04
GTTCCCAGCG	1.16
AAGTGTAGTA	1.02
GATTTCTCCA	1.07
CAATCGACCG	1.02
TTGGGCACCG	1.01
ACTGTGACGC	1.28
ATCGTTTGAC	1.03
CTTTATTTGA	0.964
GTCATAATCT	1.02
GTGCCCGTCC	1
CGCTGAATAA	1.19
CGAAGTCCGG	1
AATCCA	1
GTGGTTGCAT	0.945
AAAGCGTAA	1.01
AGGGAAAACC	1.02
AACTTCTGTA	1.01
ATTGGAGCAT	1.17
AGTTTCCGCA	1.8
GTTACTTCTG	0.983
AAACTAAAAC	1.01

Sequence	switch fluorescence ratio
TCATATGACC	1.01
GCACGGCTGG	1.04
TTTGCTCTGG	1.15
CTCTAGCGAA	1.48
ACAGGCATAA	1.06
AGGAGATAGC	1.01
GCCAGTTTTC	0.93
CCGTTCTATC	1.42
CCTGGTTCAG	0.989
CGTATAGGGC	0.977
AGGGTCCTAT	0.991
TCGCGGAAAG	1.01
AGCGTTGACC	1.01
TCTCATGGCT	0.983
GAGATAACGC	0.999
TCCGATGCGG	2.11
GCTCTGCATG	1.47
CGATGTTTCA	1.03
GGGGCGATCG	1.01
GATTACGGTA	1.16
CCAATGGAGC	1.02
AAAGTAACCG	1.01
TAGCTGGG	0.99
AAGAAAGGCG	1.02
TGAATAACAC	1.06
TTTAGTCCCT	0.959

Sequence	switch fluorescence ratio
GCAATGAAGT	1.03
CCCTAGAATG	1.03
AGAAATATAC	1
GCCCACTTGG	1.03
CATTTTCTGT	1.05
TTACAACGTG	0.976
CGGCTTTTTC	2.35
CGCTAAAGTT	0.992
GTTGGAGTG	0.992
CCTGGTTAAA	1.04
ATGACGTGTC	0.915
GATGCACAA	1.05
GGAGGTCCTG	0.981
TCGCAAACG	1.21
ATTTCGGCCG	0.989
CAATAGGGG	0.956
GCGGCAAGTG	1.05
TGCCTTACGG	1
GTGGGGAAAC	0.993
GTTAGGTGCT	1.04
TCGCTATATG	1.27
GAATTCTTAA	0.998
ACTTTTGGA	0.974
GAAGGACTG	1.05
GGGTGGTG	1
TAGAGGACGC	1.04

Sequence	switch fluorescence ratio
CGGGGTTAGG	0.998
TGTTCATGT	1.03
CTAGCTTTCA	1.02
CCAGACTTGG	0.981
TTAAATGCGC	1.03
TTTGCTGGGT	0.978
GCTGCAAGGA	1.15
TTCTAGTCCT	1.04
CGTGGCGTTT	0.982
TGTAGTCGTT	0.992
AAGCTCTGC	0.966
CCAGTAATAA	2
GGCTTGCGCC	0.98
CTCAAACGAT	1.06
ACTTAAGATT	1
TTGAGGTAAC	1.01
ATAGAATCGT	0.974
GCATATAATA	0.976
ACTTCCAGCG	1.56
ATAGTAGAGT	0.998
TGCCAATAA	4.01
CTCGCCCGGG	3.34
GGCCGGCTC	1.01
CCGGTTTTGT	1.03
TATTTTTG	1.05
CGGTGTGGTA	0.969

Sequence	switch fluorescence ratio
AAGGGAAATA	0.985
TTACTTTAGC	0.979
TTTCGGGCTT	0.97
TCCGGCTCTT	1.12
TAGCTAGTTG	1.02
TATCGAGCTG	1
TTTCTAGAC	1.04
AGGCAGGGAC	1.04
AGAGCAAGCT	1.14
AATTATATTG	0.998
TCTCGGATTA	1.03
GACTTCCTCA	2.18
CCTGAGTTCA	0.997
TACCGCCGGG	1.04
TACAGCAAAG	1.15
TCCTAATCTT	1.03
TGGCAGGCGG	1
GCTGGCGTGT	1.08
GGTGCAAAAC	2.54
CTTTTGTCTT	0.996
TTAGATTTCA	1.03
GAGGAACGGG	0.963
CTAACATT	1
CATTGCCGAA	0.988
ATAGTACGTC	1.07
TTTTGGGCAC	0.994

Sequence	switch fluorescence ratio
TGAATACCCT	1.05
ATAGTTGTTG	1.01
CGTACGGAGG	0.965
AGGTGTAGCG	1.02
TTCTTGTCAT	0.989
TGCTATCTTG	0.988
CGCATGCCTG	1.21
ACTCAGCCAT	2.27
AGTCCGACGT	1.46
ACTCTAGTGT	1.06
CTCTTTGTCT	0.982
CGAACCGTTC	1.2
TATTGCTAAG	1.01
GGTTTGTATA	0.936
TTGAGGATGC	1.06
GGTCTCCCCT	1.1
TCTTGGGCCT	1.07
TATTCCATTT	1.04
GATTACAGCC	1.03
TTTGTAGAC	1.01
CCTGGTGGGG	0.955
TAGAGGGGAC	0.957
CGACTTGTGT	1.02
GTTTTCCATG	1.96
